# Measurements taken from the supplement of paper PMC8728848.
# The list shows a part of the results.
# B1: Epa12 (Candida glabrata) (protein)
# chain: MGSSHHHHHHSSGLVPRGSHMLEPDNSLQIFDSFLSNPSKYPLGCSPKITNPKKGLSMELYSYPYRKKGSHPCWDPAYLDPNFPRVGYKKNKLIARVDGVSGDINFNFHPKRQCTPIADYLPPNFNYNEPITTTNFTMLLYGYFKPKVTGLHTFDISADDLLFMNFGAGNAFDCCRRDSTADTFGNYVAWAIWGRRIVRNKLTVRLDKGIYYPLRLFFNNRDYYGQMRLTFKTEHGSERITDFSDYFFSVDDTSEGCPGLITYESECADVKSSTVLETDYITIQAEKE
# Tests used:
# Test in all cases: glycan array binding signal (z-score within array); higher = stronger binding
# Settings in all cases: glycan notation: IUPAC condensed, linker removed
# [1] = target: Fuc(a1-2)Gal
# How it was run: (§1)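 From the Consortium for Functional Glycomics database, 3228 arrays were curated, keeping only those whose protein sequence was available. Binding is given as a within-array Z-score averaged across arrays sharing a protein sequence and across linkers. Negative Z-scores can be read as non-binding.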
# [2] = target: Fuc(a1-2)Gal(b1-3)GalNAc
# How it was run: as §1
# [3] = target: Fuc(a1-2)Gal(b1-3)GalNAc(a1-3)[Fuc(a1-2)]Gal(b1-4)Glc
# How it was run: as §1
# [4] = target: Fuc(a1-2)Gal(b1-3)GalNAc(a1-3)[Fuc(a1-2)]Gal(b1-4)GlcNAc
# How it was run: as §1
# [5] = target: Fuc(a1-2)Gal(b1-3)GalNAc(b1-3)Gal
# How it was run: as §1
# [6] = target: Fuc(a1-2)Gal(b1-3)GalNAc(b1-3)Gal(a1-4)Gal(b1-4)Glc
# How it was run: as §1
# [7] = target: Fuc(a1-2)Gal(b1-3)GalNAc(b1-3)Gal(b1-4)Glc
# How it was run: as §1
# [8] = target: Fuc(a1-2)Gal(b1-3)GalNAc(b1-4)[Neu5Ac(a2-3)]Gal(b1-4)Glc
# How it was run: as §1
# [9] = target: Fuc(a1-2)Gal(b1-3)GlcNAc
# How it was run: as §1
# [10] = target: Fuc(a1-2)Gal(b1-3)GlcNAc(b1-2)Man(a1-3)[Fuc(a1-2)Gal(b1-3)GlcNAc(b1-2)Man(a1-6)]Man(b1-4)GlcNAc(b1-4)GlcNAc
# How it was run: as §1
# [11] = target: Fuc(a1-2)Gal(b1-3)GlcNAc(b1-2)Man(a1-3)[Fuc(a1-2)Gal(b1-3)GlcNAc(b1-2)Man(a1-6)]Man(b1-4)GlcNAc(b1-4)[Fuc(a1-6)]GlcNAc
# How it was run: as §1
# [12] = target: Fuc(a1-2)Gal(b1-3)GlcNAc(b1-3)Gal(b1-4)Glc
# How it was run: as §1
# [13] = target: Fuc(a1-2)Gal(b1-3)GlcNAc(b1-3)GalNAc
# How it was run: as §1
# [14] = target: Fuc(a1-2)Gal(b1-3)GlcNAc(b1-3)[Fuc(a1-2)Gal(b1-3)GlcNAc(b1-6)]GalNAc
# How it was run: as §1
# [15] = target: Fuc(a1-2)Gal(b1-3)GlcNAc(b1-3)[Gal(b1-4)GlcNAc(b1-6)]Gal(b1-4)Glc
# How it was run: as §1
# [16] = target: Fuc(a1-2)Gal(b1-3)GlcNAc(b1-3)[Neu5Ac(a2-6)Gal(b1-4)GlcNAc(b1-6)]Gal(b1-4)Glc
# How it was run: as §1
# [17] = target: Fuc(a1-2)Gal(b1-3)GlcNAc6S
# How it was run: as §1
# [18] = target: Fuc(a1-2)Gal(b1-3)[Fuc(a1-4)]GlcNAc
# How it was run: as §1
# [19] = target: Fuc(a1-2)Gal(b1-3)[Fuc(a1-4)]GlcNAc(b1-2)Man(a1-3)[Fuc(a1-2)Gal(b1-3)[Fuc(a1-4)]GlcNAc(b1-2)Man(a1-3)]Man(b1-4)GlcNAc(b1-4)GlcNAc
# How it was run: as §1
# [20] = target: Fuc(a1-2)Gal(b1-3)[Fuc(a1-4)]GlcNAc(b1-2)Man(a1-3)[Fuc(a1-2)Gal(b1-3)[Fuc(a1-4)]GlcNAc(b1-2)Man(a1-6)]Man(b1-4)GlcNAc(b1-4)[Fuc(a1-6)]GlcNAc(b1-4)[Fuc(a1-6)]GlcNAc
# How it was run: as §1
# [21] = target: Fuc(a1-2)Gal(b1-3)[Fuc(a1-4)]GlcNAc(b1-3)[Fuc(a1-3)[Gal(b1-4)]GlcNAc(b1-6)]Gal(b1-4)Glc
# How it was run: as §1
# [22] = target: Fuc(a1-2)Gal(b1-3)[Fuc(a1-4)]GlcNAc(b1-3)[Gal(b1-4)GlcNAc(b1-6)]Gal(b1-4)Glc
# How it was run: as §1
# [23] = target: Fuc(a1-2)Gal(b1-4)Fuc(a1-3)]GlcNAc(b1-2)Man(a1-3)[Fuc(a1-2)Gal(b1-4)[Fuc(a1-3)]GlcNAc(b1-2)Man(a1-6)]Man(b1-4)GlcNAc(b1-4)GlcNAc
# How it was run: as §1
# [24] = target: Fuc(a1-2)Gal(b1-4)Glc
# How it was run: as §1
# [25] = target: Fuc(a1-2)Gal(b1-4)Glc6S
# How it was run: as §1
# [26] = target: Fuc(a1-2)Gal(b1-4)GlcNAc
# How it was run: as §1
# [27] = target: Fuc(a1-2)Gal(b1-4)GlcNAc(b1-2)Man
# How it was run: as §1
# [28] = target: Fuc(a1-2)Gal(b1-4)GlcNAc(b1-2)Man(a1-3)[Fuc(a1-2)Gal(b1-4)GlcNAc(b1-2)Man(a1-6)]Man(b1-4)GlcNAc(b1-4)GlcNAc
# How it was run: as §1
# [29] = target: Fuc(a1-2)Gal(b1-4)GlcNAc(b1-2)Man(a1-3)[Fuc(a1-2)Gal(b1-4)GlcNAc(b1-2)Man(a1-6)]Man(b1-4)GlcNAc(b1-4)[Fuc(a1-6)]GlcNAc
# How it was run: as §1
# [30] = target: Fuc(a1-2)Gal(b1-4)GlcNAc(b1-2)[Fuc(a1-2)Gal(b1-4)GlcNAc(b1-4)]Man(a1-3)[Fuc(a1-2)Gal(b1-4)GlcNAc(b1-2)Man(a1-6)]Man(b1-4)GlcNAc(b1-4)GlcNAc
# How it was run: as §1
# [31] = target: Fuc(a1-2)Gal(b1-4)GlcNAc(b1-3)Gal(b1-4)GlcNAc
# How it was run: as §1
# [32] = target: Fuc(a1-2)Gal(b1-4)GlcNAc(b1-3)Gal(b1-4)GlcNAc(b1-2)Man(a1-3)[Fuc(a1-2)Gal(b1-4)GlcNAc(b1-3)Gal(b1-4)GlcNAc(b1-2)Man(a1-6)]Man(b1-4)GlcNAc(b1-4)GlcNAc
# How it was run: as §1
# [33] = target: Fuc(a1-2)Gal(b1-4)GlcNAc(b1-3)Gal(b1-4)GlcNAc(b1-3)Gal(b1-4)GlcNAc
# How it was run: as §1
# [34] = target: Fuc(a1-2)Gal(b1-4)GlcNAc(b1-3)GalNAc
# How it was run: as §1
# [35] = target: Fuc(a1-2)Gal(b1-4)GlcNAc(b1-3)[Fuc(a1-2)Gal(b1-4)GlcNAc(b1-6)]GalNAc
# How it was run: as §1
# [36] = target: Fuc(a1-2)Gal(b1-4)GlcNAc(b1-3)[Fuc(a1-3)[Gal(b1-4)]GlcNAc(b1-6)]Gal(b1-4)Glc
# How it was run: as §1
# [37] = target: Fuc(a1-2)Gal(b1-4)GlcNAc(b1-6)GalNAc
# How it was run: as §1
binder,measurement,setting,value
B1,glycan array binding signal (z-score),[1],-0.548
same,glycan array binding signal (z-score),[2],-0.309
same,glycan array binding signal (z-score),[3],-0.338
same,glycan array binding signal (z-score),[4],-0.357
same,glycan array binding signal (z-score),[5],-0.222
same,glycan array binding signal (z-score),[6],-0.185
same,glycan array binding signal (z-score),[7],-0.255
same,glycan array binding signal (z-score),[8],-0.283
same,glycan array binding signal (z-score),[9],-0.391
same,glycan array binding signal (z-score),[10],-0.248
same,glycan array binding signal (z-score),[11],-0.268
same,glycan array binding signal (z-score),[12],-0.348
same,glycan array binding signal (z-score),[13],-0.349
same,glycan array binding signal (z-score),[14],0.038
same,glycan array binding signal (z-score),[15],0.069
same,glycan array binding signal (z-score),[16],-0.355
same,glycan array binding signal (z-score),[17],-0.28
same,glycan array binding signal (z-score),[18],-0.321
same,glycan array binding signal (z-score),[19],-0.158
same,glycan array binding signal (z-score),[20],-0.305
same,glycan array binding signal (z-score),[21],-1.26
same,glycan array binding signal (z-score),[22],-0.259
same,glycan array binding signal (z-score),[23],-0.132
same,glycan array binding signal (z-score),[24],-0.329
same,glycan array binding signal (z-score),[25],-0.08
same,glycan array binding signal (z-score),[26],-0.334
same,glycan array binding signal (z-score),[27],-0.329
same,glycan array binding signal (z-score),[28],-0.309
same,glycan array binding signal (z-score),[29],-0.185
same,glycan array binding signal (z-score),[30],-0.325
same,glycan array binding signal (z-score),[31],-0.342
same,glycan array binding signal (z-score),[32],-0.423
same,glycan array binding signal (z-score),[33],-0.389
same,glycan array binding signal (z-score),[34],-0.378
same,glycan array binding signal (z-score),[35],-0.221
same,glycan array binding signal (z-score),[36],-0.252
same,glycan array binding signal (z-score),[37],-0.153
